# From article PMC4336329 (PLoS ONE, 2015)
# The whole screen tested about 310,000 compounds, of which about 14,000 (4.5%) showed an effect of 50% or more. The effect is printed as a negative number. Some of the results follow.
# Biological target: human ether-à-go-go-related gene (hERG) potassium channel (human, UniProt Q12809)
# Assay: primary screen, population patch clamp on CHO cells stably expressing hERG
# 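Note: peak tail current of the secondary pulse compared with the same well before compound.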
# human ether-à-go-go-related gene (hERG) potassium channel, sequence (Q12809 whole entry, looked up): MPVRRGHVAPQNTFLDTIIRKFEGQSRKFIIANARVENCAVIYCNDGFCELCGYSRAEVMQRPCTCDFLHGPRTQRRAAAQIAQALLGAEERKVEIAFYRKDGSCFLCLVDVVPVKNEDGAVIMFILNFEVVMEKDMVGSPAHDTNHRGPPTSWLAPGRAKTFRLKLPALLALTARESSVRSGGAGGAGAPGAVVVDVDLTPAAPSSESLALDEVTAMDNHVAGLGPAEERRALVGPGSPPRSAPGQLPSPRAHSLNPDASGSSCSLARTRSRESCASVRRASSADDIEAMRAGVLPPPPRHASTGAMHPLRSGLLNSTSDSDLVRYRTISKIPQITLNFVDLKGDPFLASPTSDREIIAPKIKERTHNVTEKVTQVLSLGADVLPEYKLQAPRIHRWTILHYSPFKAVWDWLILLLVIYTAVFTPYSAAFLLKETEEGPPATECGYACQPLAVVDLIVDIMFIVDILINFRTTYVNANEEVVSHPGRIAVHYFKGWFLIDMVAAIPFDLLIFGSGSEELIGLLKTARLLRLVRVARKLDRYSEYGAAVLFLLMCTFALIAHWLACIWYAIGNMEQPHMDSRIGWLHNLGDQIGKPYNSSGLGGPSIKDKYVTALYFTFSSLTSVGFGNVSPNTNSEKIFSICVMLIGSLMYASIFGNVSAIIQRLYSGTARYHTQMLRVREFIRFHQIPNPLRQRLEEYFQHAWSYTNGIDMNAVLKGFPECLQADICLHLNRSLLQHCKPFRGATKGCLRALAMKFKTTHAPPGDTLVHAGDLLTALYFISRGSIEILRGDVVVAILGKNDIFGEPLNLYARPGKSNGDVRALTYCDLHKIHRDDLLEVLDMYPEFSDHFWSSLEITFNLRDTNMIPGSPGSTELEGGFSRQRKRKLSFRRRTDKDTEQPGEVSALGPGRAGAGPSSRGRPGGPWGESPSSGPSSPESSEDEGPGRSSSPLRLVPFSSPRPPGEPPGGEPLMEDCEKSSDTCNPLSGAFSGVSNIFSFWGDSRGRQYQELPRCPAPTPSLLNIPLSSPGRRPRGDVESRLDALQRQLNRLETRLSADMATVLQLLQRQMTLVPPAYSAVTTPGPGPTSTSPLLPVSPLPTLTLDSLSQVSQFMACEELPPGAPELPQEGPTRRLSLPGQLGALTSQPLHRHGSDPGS
row,SMILES,"hERG current change (%, negative = inhibition) at 10uM [%]"
1,COc1ccc2nc(-c3ccc(N)cc3)[nH]c2c1,3.97
2,O=C(NNS(=O)(=O)c1ccc(F)cc1)C1CCN(Cc2cccc(F)c2)CC1,-13.7
3,CCc1cc(=O)oc2cc(C)cc(OC(C)C(=O)NC3CC(C)(C)NC(C)(C)C3)c12 (stereo not drawn),13.1
4,CCN(CC)c1ccc(/C=N/NC(=O)CN2CCCc3ccccc32)cc1,-9.07
5,Cc1cccc(CCNS(=O)(=O)c2ccc3c(c2)CCN3C(=O)CCC(=O)O)c1,26.1
6,COc1cccc(N(C(=O)c2csnn2)C(C(=O)NC2CCCC2)c2ccccc2)c1 (stereo not drawn),-0.366
7,CNC(=O)C(=O)NCCc1ccc(Cl)cc1,12.5
8,O=C(NCC(c1cccs1)N1CCOCC1)C1CCN(S(=O)(=O)c2c(Cl)cccc2Cl)CC1 (stereo not drawn),-27.3
9,CN(C)S(=O)(=O)c1cccc(NC(=O)COC(=O)c2cc(=O)c3ccccc3o2)c1,11.3
10,Cc1noc(C)c1COc1ccc(C(=O)OCC(=O)NC23CC4CC(CC(C4)C2)C3)cc1,19.4
11,O=C(O)CCC(=O)Nc1ccc2c(c1)Cc1cc(NC(=O)CCC(=O)O)ccc1-2,12.5
12,O=C(NC12CC3CC(CC(C3)C1)C2)c1c(Cl)cccc1Cl,-14
13,COc1cc(NC(=O)c2ccco2)c(OC)cc1NC(=O)CSc1ncc(-c2ccc(F)cc2)[nH]1,2.14
14,Cc1nn(C)cc1/C=N/NC(=O)c1ccc2c(c1)OCO2,-1.33
15,Cn1c(O)c(/C=C/C=Nc2ccccc2)c(=O)n(C)c1=O,14.1
16,O=C(NCCN1CCN(Cc2ccccc2)CC1)C1CC(=O)N(C2CCCC2)C1 (stereo not drawn),10
17,Cc1ccc(-c2nnc(SCC(=O)N/N=C/c3ccccc3C(=O)O)n2C2CCCCC2)cc1,11.1
18,CCCNC(=O)c1onc(CSc2ccc(F)cc2)c1C(=O)NCCC,5.35
19,O=C(NCCc1c[nH]c2ccccc12)Nc1cccc2ccccc12,-2.66
20,Cc1ccccc1CSCc1ccc(C(=O)NCCCN2CCOCC2)o1,-47.6
21,CC(=O)c1sccc1NC(=O)CC(C)(C)CC(=O)O,4.84
22,CC(=O)Nc1cc(C(=O)N(C)Cc2ccco2)ccc1Sc1ccc(Cl)cc1,-66.7
23,CC(=O)OC1(c2ccc(C)cc2)CN2CCC1c1ccccc12.Cl (stereo not drawn),-4.93

row,SMILES,"hERG current change (%, negative = inhibition) at 10uM [%]"
1,CCN(CC)CC(=O)Nc1ccc([N+](=O)[O-])cc1,-47.5
2,O=C(Nc1ccon1)c1nc[nH]c1C(=O)N1CCc2ccccc2C1,22.4
3,COCCn1c(=O)[nH]c2cc(C(=O)N3CCN(c4ccccc4)CC3)ccc2c1=O,14.5
4,COc1ccc(C(O)P(=O)(OC(C)C)OC(C)C)cc1OC (stereo not drawn),-0.491
5,Cc1cccc(NS(=O)(=O)c2ccc(C(=O)NCC(c3ccco3)N(C)C)cc2)c1C (stereo not drawn),-20.3
6,O=C(CN(c1ccccc1)S(=O)(=O)c1ccc(F)cc1)N1CCCCCC1,-32.3
7,CCC[C@H]1COCCS(=O)(=O)N1Cc1ccccc1,4.86
8,O=C(CN1CCN(c2ccccn2)CC1)Nc1ccc(OCc2ccccc2)cc1,-45.3
9,O=C(Nc1c(-c2cccs2)nc2ccccn12)c1ccc2ccccc2c1,29.7
10,N#Cc1ccccc1CN1C(=O)NC2(CCCCCC2)C1=O,-3.88
11,Fc1ccc(NC(=S)N2CCSC2c2cccs2)cc1 (stereo not drawn),4.73
12,COc1ccc(CCN2C(=O)CC(Cc3ccc(C)cc3)C2=O)cc1OC (stereo not drawn),-26.2
13,CC(C)(C)c1cc(CN2CCCC(O)C2)c(O)c(C(C)(C)C)c1 (stereo not drawn),-13.9
14,Cc1cc(C)n(-c2nc3c(c(=O)n(C)c(=O)n3C)n2C)n1,0.426
15,COc1ccc(Oc2ccccc2C=O)cc1,3.42
16,Cc1nn2c(N)c(-c3ccccc3)cnc2c1-c1ccc(Cl)cc1,16.7
17,CC1(C)CC(=O)N(c2ccccc2)C1(C)O (stereo not drawn),-7.84
18,COc1ccc(C(=O)N[C@H](C(=O)NCC2CCCCC2)C(C)C)cc1,8.74
19,O=C(NNc1cccc(Cl)n1)Nc1ccccc1F,-0.675
20,Cc1cccc(N2CCN(C(=O)c3ccc4nc(N5CCCCC5)sc4c3)CC2)c1C,2.19
21,CCN(C#N)c1nc(NC(C)C)nc(NC(C)(C)C)n1,-2.59
22,CCOc1ccc(NC(=O)CC2S/C(=N/N=C3CCCCCC3)NC2=O)cc1 (stereo not drawn),10.3
